According to article PMC12820563, “FoxP3 forms a head-to-head dimer in vivo and stabilizes its multimerization on adjacent microsatellites”:
Some of the results follow.

molecular target: T1, MBP-FoxP1dN (Mus musculus, UniProt P58462 326-579); experiment: PD-seq (MBP pull-down with sequencing); 20 mM Tris-HCl pH 7.5, 100 mM NaCl, 1.5 mM MgCl2, 0.4 uM protein, 0.1 uM dsDNA library, 30 min, room temperature, amylose pull-down; high values mean tight binding; conditions: protein: recombinant; tags: His6-MBP; chain copies: 2; dsDNA, one strand shown
T1 sequence: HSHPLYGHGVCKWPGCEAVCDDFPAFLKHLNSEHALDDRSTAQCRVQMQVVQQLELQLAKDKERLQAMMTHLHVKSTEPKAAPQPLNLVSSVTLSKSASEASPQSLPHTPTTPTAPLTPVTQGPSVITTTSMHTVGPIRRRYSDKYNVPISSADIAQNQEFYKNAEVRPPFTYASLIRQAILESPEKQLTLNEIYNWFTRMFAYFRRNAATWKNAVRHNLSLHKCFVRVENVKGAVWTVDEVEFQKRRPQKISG
Summary of the method: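 Amylose resin was used to capture complexes formed during 30 min at room temperature in Tris pH 7.5 buffer with NaCl and MgCl2 between 0.4 µM His6-MBP-tagged mouse FoxP3 or FoxP1 fragment lacking the N-terminus, expressed in E. coli, and 0.1 µM Klenow-filled double-stranded degenerate DNA library. After three washes, the DNA was released with proteinase K, barcoded by PCR and sequenced on Illumina. Binding is pooled-replicate reads-per-million enrichment, pull-down over input.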

Sequence	binding signal
GATGATTGTTCTCCCAGCTGATGAATTTATCAAATCGAGTAAACAAATTTTCCTAATCTTTCTGTTCAAGCGCCATCTAC	1.28 RPM ratio (pull-down/input)
GATGATTGTTCTCCCAGCTGATGAATTCGATCGCTCGAGTAAACAAATTTTCCTAATCTTTCTGTTCAAGCGCCATCTAC	0.768 RPM ratio (pull-down/input)
GATGATTGTTCTCCCAGCTGATGAATTATCGTCTTCGAGTAAACAAATTTTCCTAATCTTTCTGTTCAAGCGCCATCTAC	0.967 RPM ratio (pull-down/input)
GATGATTGTTCTCCCAGCTGATGAATTGATTCGGTCGAGTAAACAAATTTTCCTAATCTTTCTGTTCAAGCGCCATCTAC	0.987 RPM ratio (pull-down/input)
GATGATTGTTCTCCCAGCTGATGAATTTCTCACGTCGAGTAAACAAATTTTCCTAATCTTTCTGTTCAAGCGCCATCTAC	1.01 RPM ratio (pull-down/input)
GATGATTGTTCTCCCAGCTGATGAATTAGATTCTTCGAGTAAACAAATTTTCCTAATCTTTCTGTTCAAGCGCCATCTAC	0.894 RPM ratio (pull-down/input)
GATGATTGTTCTCCCAGCTGATGAATTGTTGACATCGAGTAAACAAATTTTCCTAATCTTTCTGTTCAAGCGCCATCTAC	2.54 RPM ratio (pull-down/input)
GATGATTGTTCTCCCAGCTGATGAATTGTACCCCTCGAGTAAACAAATTTTCCTAATCTTTCTGTTCAAGCGCCATCTAC	0.886 RPM ratio (pull-down/input)
GATGATTGTTCTCCCAGCTGATGAATTTCAGGGATCGAGTAAACAAATTTTCCTAATCTTTCTGTTCAAGCGCCATCTAC	0.816 RPM ratio (pull-down/input)
GATGATTGTTCTCCCAGCTGATGAATTTACTCGGTCGAGTAAACAAATTTTCCTAATCTTTCTGTTCAAGCGCCATCTAC	1.12 RPM ratio (pull-down/input)
GATGATTGTTCTCCCAGCTGATGAATTGAGTATTTCGAGTAAACAAATTTTCCTAATCTTTCTGTTCAAGCGCCATCTAC	0.945 RPM ratio (pull-down/input)
GATGATTGTTCTCCCAGCTGATGAATTCGACCCATCGAGTAAACAAATTTTCCTAATCTTTCTGTTCAAGCGCCATCTAC	0.804 RPM ratio (pull-down/input)
GATGATTGTTCTCCCAGCTGATGAATTCCGAATCTCGAGTAAACAAATTTTCCTAATCTTTCTGTTCAAGCGCCATCTAC	0.802 RPM ratio (pull-down/input)
GATGATTGTTCTCCCAGCTGATGAATTAATTAAGTCGAGTAAACAAATTTTCCTAATCTTTCTGTTCAAGCGCCATCTAC	0.998 RPM ratio (pull-down/input)
GATGATTGTTCTCCCAGCTGATGAATTTACTTGTTCGAGTAAACAAATTTTCCTAATCTTTCTGTTCAAGCGCCATCTAC	1.3 RPM ratio (pull-down/input)
GATGATTGTTCTCCCAGCTGATGAATTTCCCCTCTCGAGTAAACAAATTTTCCTAATCTTTCTGTTCAAGCGCCATCTAC	0.754 RPM ratio (pull-down/input)
GATGATTGTTCTCCCAGCTGATGAATTGCAAGGTTCGAGTAAACAAATTTTCCTAATCTTTCTGTTCAAGCGCCATCTAC	1.02 RPM ratio (pull-down/input)
GATGATTGTTCTCCCAGCTGATGAATTAAACGCCTCGAGTAAACAAATTTTCCTAATCTTTCTGTTCAAGCGCCATCTAC	0.92 RPM ratio (pull-down/input)
GATGATTGTTCTCCCAGCTGATGAATTAATCACTTCGAGTAAACAAATTTTCCTAATCTTTCTGTTCAAGCGCCATCTAC	1.02 RPM ratio (pull-down/input)
GATGATTGTTCTCCCAGCTGATGAATTTGGCTTCTCGAGTAAACAAATTTTCCTAATCTTTCTGTTCAAGCGCCATCTAC	0.859 RPM ratio (pull-down/input)

Sequence	binding signal
GATGATTGTTCTCCCAGCTGATGAATTACTATATTCGAGTAAACAAATTTTCCTAATCTTTCTGTTCAAGCGCCATCTAC	1.23 RPM ratio (pull-down/input)
GATGATTGTTCTCCCAGCTGATGAATTGACCATTTCGAGTAAACAAATTTTCCTAATCTTTCTGTTCAAGCGCCATCTAC	0.923 RPM ratio (pull-down/input)
GATGATTGTTCTCCCAGCTGATGAATTCGTTTGTTCGAGTAAACAAATTTTCCTAATCTTTCTGTTCAAGCGCCATCTAC	0.998 RPM ratio (pull-down/input)
GATGATTGTTCTCCCAGCTGATGAATTGCCTTATTCGAGTAAACAAATTTTCCTAATCTTTCTGTTCAAGCGCCATCTAC	1.05 RPM ratio (pull-down/input)
GATGATTGTTCTCCCAGCTGATGAATTCTTTTTGTCGAGTAAACAAATTTTCCTAATCTTTCTGTTCAAGCGCCATCTAC	0.964 RPM ratio (pull-down/input)
GATGATTGTTCTCCCAGCTGATGAATTTTTATCCTCGAGTAAACAAATTTTCCTAATCTTTCTGTTCAAGCGCCATCTAC	0.902 RPM ratio (pull-down/input)
GATGATTGTTCTCCCAGCTGATGAATTCCGGTAGTCGAGTAAACAAATTTTCCTAATCTTTCTGTTCAAGCGCCATCTAC	0.777 RPM ratio (pull-down/input)
GATGATTGTTCTCCCAGCTGATGAATTCTTACTATCGAGTAAACAAATTTTCCTAATCTTTCTGTTCAAGCGCCATCTAC	1.02 RPM ratio (pull-down/input)
GATGATTGTTCTCCCAGCTGATGAATTATTCTGCTCGAGTAAACAAATTTTCCTAATCTTTCTGTTCAAGCGCCATCTAC	0.977 RPM ratio (pull-down/input)
GATGATTGTTCTCCCAGCTGATGAATTGCTACTATCGAGTAAACAAATTTTCCTAATCTTTCTGTTCAAGCGCCATCTAC	1.21 RPM ratio (pull-down/input)
GATGATTGTTCTCCCAGCTGATGAATTAAGTCCATCGAGTAAACAAATTTTCCTAATCTTTCTGTTCAAGCGCCATCTAC	0.92 RPM ratio (pull-down/input)
GATGATTGTTCTCCCAGCTGATGAATTGTCGTCTTCGAGTAAACAAATTTTCCTAATCTTTCTGTTCAAGCGCCATCTAC	1.1 RPM ratio (pull-down/input)
GATGATTGTTCTCCCAGCTGATGAATTGTCCAGGTCGAGTAAACAAATTTTCCTAATCTTTCTGTTCAAGCGCCATCTAC	0.838 RPM ratio (pull-down/input)
GATGATTGTTCTCCCAGCTGATGAATTACTCCGCTCGAGTAAACAAATTTTCCTAATCTTTCTGTTCAAGCGCCATCTAC	0.875 RPM ratio (pull-down/input)
GATGATTGTTCTCCCAGCTGATGAATTCCTTGACTCGAGTAAACAAATTTTCCTAATCTTTCTGTTCAAGCGCCATCTAC	0.771 RPM ratio (pull-down/input)
GATGATTGTTCTCCCAGCTGATGAATTTACCGAGTCGAGTAAACAAATTTTCCTAATCTTTCTGTTCAAGCGCCATCTAC	1.13 RPM ratio (pull-down/input)
GATGATTGTTCTCCCAGCTGATGAATTCCCACGATCGAGTAAACAAATTTTCCTAATCTTTCTGTTCAAGCGCCATCTAC	0.81 RPM ratio (pull-down/input)
GATGATTGTTCTCCCAGCTGATGAATTAATGTTGTCGAGTAAACAAATTTTCCTAATCTTTCTGTTCAAGCGCCATCTAC	2.64 RPM ratio (pull-down/input)
GATGATTGTTCTCCCAGCTGATGAATTGGAATAATCGAGTAAACAAATTTTCCTAATCTTTCTGTTCAAGCGCCATCTAC	1.14 RPM ratio (pull-down/input)
GATGATTGTTCTCCCAGCTGATGAATTTCCTGGCTCGAGTAAACAAATTTTCCTAATCTTTCTGTTCAAGCGCCATCTAC	0.756 RPM ratio (pull-down/input)
